From PubChem BioAssay AID463173 (ICCB-Longwood Screening Facility, Harvard Medical School, 2010) come the findings set out here.

Each structure is given as a SMILES string. The whole screen tested about 52,000 compounds, of which about 1,700 (3.3%) were called active. No stated cut-off is given here; in the data, active means survival mostly below about 52% (no sharp cut-off); inactive means mostly above about 56%. This is one part of the list.

The subject of the experiment is Wild type. Kind of experiment: S. aureus survival, RN4220 and DeltatarO strains – OD600, teichoic acid synthesis inhibitors, primary screen (AID 463173). The settings on record: S. aureus RN4220 wild type/DeltatarO growth, OD600, 18 h, active compounds read low, screened at 18.75 µg/mL (by protocol).
As to `COC(=O)C1=C(c2ccccc2)c2ccccc2S(=O)(=O)N1CC(=O)Nc1cc(C)ccc1C`, the survival is inactive: 77%.
For `Cc1ccc(CN2C(=O)C3(SCC(=O)N3c3ccc(C)c(C)c3)c3ccccc32)cc1` (stereo not given), the survival was inactive: 95%.
As for `COc1ccccc1C/C(N)=N/OC(=O)c1ccccc1`, the figure is inactive: 108%; as for `CCOC(=O)c1cccc(NC(=O)CCc2c(C)nc3c4cccnc4nn3c2C)c1`, inactive: 89%; as for `CCOC(=O)Cn1nc(N2CCN(c3ccc(F)cc3)CC2)ccc1=O`, inactive: 73%.
Take `Cc1c(C(=O)N2CCOCC2)oc2c1-c1nn(CC(=O)NCc3ccccc3)cc1CC2`: the survival was inactive: 87%.
`CSc1ccc(Nc2nn(-c3ccc(OC(F)(F)F)cc3)nc2C(C)=O)cc1`: the survival is inactive: 88%.
Regarding `CCOCCn1ccc2c(OCC(=O)Nc3cc(C(F)(F)F)ccc3Cl)cccc2c1=O`, the survival is inactive: 75%.
As for `COc1ccccc1Cn1c(CNS(=O)(=O)c2c(C)cc(C)cc2C)nc2cccnc21`, the survival is inactive: 131%.
On to `Cc1cccc(C(=O)Nc2cc3c(cc2N2CCCCC2)n(C)c(=O)n3C)c1`, for which the survival was inactive: 85%.
`CCn1cc(S(=O)(=O)c2ccccc2)c(=O)c2cc(F)c(N3CCCCCC3)cc21`: the survival was inactive: 74%.
For the compound `Cc1ccc(-n2nc(C)c3c(C)c(CCC(=O)NCc4cccc(Cl)c4)c(C)nc32)cc1C`, the survival is inactive: 125%.
Regarding `CC(=O)c1cccc(NC(=O)c2ccc3c(c2)CCN3S(=O)(=O)c2ccccc2)c1`, the survival was inactive: 71%.
The same measure for `CCOCCCn1c(=N)c(S(=O)(=O)c2ccccc2)cc2c(=O)n3cc(C)ccc3nc21`: inactive: 93%; for `O=C(O)CCn1c(=S)n(CCC(=O)O)c2ccccc21`: inactive: 104%.
With `Cc1ccccc1OCC(=O)Nc1ccc(S(=O)(=O)Nc2ncccn2)cc1`, the survival was inactive: 130%.
`O=C(CSc1c2c(nc3ccc(Cl)cc13)CCCC2)N1CCCCC1`: the survival is inactive: 29%.
Take `O=C(CSc1ncn[nH]1)N1CCOCC1`: the survival is inactive: 112%.
Regarding `CCOc1ccc(CCNC(=O)c2cc3cc4ccc(OC)cc4nc3s2)cc1OCC`, the survival is inactive: 101%.
`COCCNC(=O)C(=O)Nc1ccc2nc3n(c(=O)c2c1)CCCCC3`: the survival is inactive: 87%.
For the compound `C=Cc1ccc(Cn2c(C(=O)O)c(CNCc3cc(OC)ccc3OC)c3ccc(C)cc32)cc1`, the survival is inactive: 92%.
`COc1ccc(C(=O)Oc2c(Sc3ccc(C)cc3)c(C)nn2C(C)(C)C)c(OC)c1`: the survival is inactive: 60%.
Regarding `Nc1c2c(nc3c1CCC3)CCCC2`, the survival is inactive: 102%.
The same measure for `C=CCNC(=O)Nc1ccc2oc(C)nc2c1`: inactive: 106%.
On to `COc1ccc(C2NC(=O)N(C)C3=C2C(=O)N(c2ccccc2)C3)cc1` (stereo not given), for which the survival was inactive: 88%.
Regarding `COc1ccc(-c2nc3c(C#N)c[nH]n3c2NC2CCCCC2)cc1`, the survival was inactive: 45%.
Take `COc1ccc(CCNC(=O)C(C)n2nc(C)c3sc4ccccc4c3c2=O)cc1OC` (stereo not given): the survival is inactive: 101%.
The same measure for `CCC12CN3CC(C)(CN(C1)C3c1c(C)[nH]c3ccccc13)C2=O` (stereo not given): inactive: 85%.
The same measure for `CCOc1ccc(C2C(C(=O)Nc3ccc(C)cc3C)=C(C)Nc3c(C(=O)Nc4ccc(C)cc4)cnn32)cc1OC` (stereo not given): inactive: 83%.
`COc1ccc(-c2nc(C)c(CCNC(=O)c3cccc(C)c3)s2)cc1OC`: the survival was inactive: 82%.
In the case of `CCCCC(=O)Nc1nnc(S(=O)(=O)N2CCCCCC2)s1`, the survival is inactive: 91%.
Take `COC(=O)c1cc2sccc2n1Cc1ccc(F)cc1`: the survival was inactive: 135%.
For `Cc1cccc(-c2cc(NC(=O)c3ccccc3C)n(-c3ccccc3)n2)c1`, the survival is inactive: 71%.
Consider `CCN(c1cccc(C)c1)C(CNS(=O)(=O)c1ccccc1)c1ccccc1` (stereo not given), for which the survival is inactive: 77%.
As for `CSc1ccc(NC(=O)NCCn2cnc3cccnc32)cc1`, the survival is inactive: 108%.
In the case of `Cc1ccc(C)c(CNC(=O)C2CCCCN2S(=O)(=O)c2ccc(F)cc2)c1` (stereo not given), the survival was inactive: 118%.
For `CCOc1ccc(NC(=O)c2cccc(N3CCCS3(=O)=O)c2)cc1`, the survival is inactive: 72%.
Regarding `Cc1ccc(C)c(N2CCN(C(=O)CN3C(=O)COc4ccc(S(=O)(=O)N5CCOCC5)cc43)CC2)c1`, the survival is inactive: 86%.
In the case of `CCC(=O)Nc1ccc(N2CCCCC2)cc1`, the survival was inactive: 103%.
The same measure for `CCC(=O)N1c2ccccc2CC1C(=O)NCCCN1CCN(c2ccccc2)CC1` (stereo not given): inactive: 83%; for `CC(=O)N(CCCN1CCOCC1)Cc1ccncc1`: inactive: 117%.
As for `Cc1nc(C)c(-c2csc(NCc3ccccc3)n2)s1`, the figure is inactive: 123%; as for `O=C(Nc1ccc(F)c(Cl)c1)C1CCCN(c2ncnc3onc(-c4ccc(F)cc4)c23)C1` (stereo not given), inactive: 74%.
`c1nc(N2CCCC2)c2c3c(sc2n1)CCC3`: the survival was inactive: 105%.
Take `COc1ccc(Br)cc1CNC(=O)CCCn1c(=O)c2cccn2c2cccnc21`: the survival was inactive: 108%.
On to `CCCS(=O)(=O)c1c(S(=O)(=O)CCC)c2cc(C(C)(C)C)ccn2c1C(=O)c1ccc(OC)c(OC)c1`, for which the survival was inactive: 152%.
As for `COc1ccc(C2C=C(c3ccc(C)cc3)Nc3c(C(=O)Nc4ccccc4)cnn32)cc1` (stereo not given), the figure is inactive: 43%.
Regarding `COc1ccc(CN(Cc2nc3ccccc3c(=O)[nH]2)C(=O)NCc2ccccc2)cc1`, the survival is inactive: 114%.
For the compound `Cc1ccc(C)c(NC(=O)c2cc(S(=O)(=O)N3CCc4ccccc4C3)ccc2F)c1`, the survival is inactive: 66%.
`COc1ccccc1CNC(=O)c1cc2sccc2n1Cc1ccc(F)cc1`: the survival was inactive: 147%.
On to `COc1ccc(-c2noc(-c3ccccc3OCC(=O)Nc3ccc(C(C)=O)cc3)n2)cc1`, for which the survival was inactive: 83%.
Consider `O=C(Cn1ncc2c3ccccc3n(Cc3ccccc3)c2c1=O)N1CCCCCC1`, for which the survival was inactive: 84%.
As for `O=C(NC(c1ccccc1)c1ccccc1)C1CCCO1` (stereo not given), the figure is inactive: 96%; as for `COc1ccccc1NC(=O)Cn1c(=O)n(-c2ccccc2Cl)c(=O)c2sc3ccccc3c21`, inactive: 81%.
For `CC(C)OC(=O)CN1CCN(C2CCCCC2)CC1`, the survival is inactive: 102%.
Take `COCCCn1c(SCc2ccccc2F)nc2c(sc3ccccc32)c1=O`: the survival is inactive: 98%.
Consider `CCc1cccc(NC(=O)Cn2c(C(=O)OC)cc3occc32)c1`, for which the survival was inactive: 83%.
The same measure for `C=CCn1c(C(CC)CC(C)(C)O)n[nH]c1=S` (stereo not given): inactive: 102%.
With `COc1ccc(CNC(=O)CCCCCn2c(=O)[nH]c3ccccc3c2=O)cc1`, the survival is inactive: 88%.
`Cc1ccc(CNc2ccc(-c3nc(-c4cccnc4)no3)cc2[N+](=O)[O-])cc1`: the survival is inactive: 79%.
For the compound `CCN(CC)S(=O)(=O)c1ccc2c(c1)N(CC(=O)Nc1ccc(F)cc1F)C(=O)C1CCCN21` (stereo not given), the survival was inactive: 64%.
Turning to `CCOC(=O)c1[nH]c2ccccc2c1NC(=O)c1cc(Cl)ccc1Cl`, the survival was inactive: 96%.
In the case of `CCn1cc(C(=O)NCCc2ccc(Cl)cc2)c(=O)c2cc(S(=O)(=O)N3CCOCC3)ccc21`, the survival was inactive: 74%.
Take `CCOC(=O)c1[nH]c2ccccc2c1NC(=O)c1ccc(OC)c(OC)c1`: the survival was inactive: 141%.
Consider `COc1cc(NC(=O)Cn2c(C)cc(C)c(C#N)c2=O)cc(OC)c1`, for which the survival was inactive: 70%.
As for `Cc1cccc2cc(CN(C(=O)c3ccco3)C3CCCC3)c(=O)[nH]c12`, the figure is inactive: 100%.
On to `Oc1cccc(-c2nc3ncccn3c2Nc2cccc(C(F)(F)F)c2)c1`, for which the survival is inactive: 71%.
Regarding `COc1ccccc1Nc1nc2c(S(=O)(=O)c3ccc(C(C)C)cc3)nnn2c2ccsc12`, the survival was inactive: 116%.
Take `CCCC(C(=O)NC1CCCC1)N(C(=O)Cn1nnc(-c2ccc(C)o2)n1)C1CCCC1` (stereo not given): the survival was inactive: 108%.
In the case of `NC(=O)CSc1nnc(COc2ccccc2)n1C1CCCCC1`, the survival was inactive: 110%.
The same measure for `O=C(CC(c1cccs1)N1Cc2ccccc2C1=O)Nc1ccc(Cl)cc1` (stereo not given): inactive: 129%.
Take `COc1ccccc1Cc1nc2ccccc2nc1SCC(=O)NCc1ccc(F)cc1`: the survival is inactive: 63%.
Take `CCOc1ccc2nc(Cl)c(C3CC(c4ccc(C)cc4)=NN3C(=O)CCCC(=O)O)cc2c1` (stereo not given): the survival was inactive: 73%.
Turning to `Cc1ccc2c(=O)cc(C(=O)Nc3ccc(S(=O)(=O)N4CCCCC4)cc3)oc2c1C`, the survival was inactive: 108%.
For the compound `Cc1cccc(N2CCN(c3ncnc4onc(-c5ccc(F)cc5)c34)CC2C)c1` (stereo not given), the survival is inactive: 85%.
In the case of `Cc1ccc(NC(=O)CCc2nc3cccnc3n2-c2ccccc2)cc1`, the survival was inactive: 75%.
The same measure for `COc1cccc2cc(C(=O)Nc3ccc(S(=O)(=O)N4CCOCC4)cc3)c(=O)oc12`: inactive: 102%; for `Cc1cc(C)c2oc(-c3ccc(NC(=O)c4cc(Br)ccc4Cl)cc3)nc2c1`: inactive: 103%; for `O=C(Cn1c(=O)n(Cc2ccc(C(=O)NCc3ccccc3Cl)cc2)c(=O)c2ccccc21)Nc1ccc(F)cc1`: inactive: 80%.
For the compound `Cc1coc2cc3oc(=O)c(CC(=O)NCCc4ccccc4F)c(C)c3cc12`, the survival was inactive: 85%.
In the case of `CC(C)(C)C(=O)Nc1ccc(Cl)c(-c2nc3ccccc3[nH]2)c1`, the survival was inactive: 75%.
Turning to `CN(Cc1ccccc1)c1nc(-c2ccc(F)cc2)cc(C(F)(F)F)n1`, the survival is inactive: 80%.
Consider `O=C(COc1ccccc1F)Nc1ccc(C(=O)OCc2cc(=O)n3nc(C4CC4)sc3n2)cc1`, for which the survival was inactive: 129%.
Consider `CCCCN(C)CCNC(=O)c1cc(-c2cccnc2)nc2ccc(S(=O)(=O)N3CCC(C)CC3)cc12`, for which the survival was inactive: 71%.
Turning to `Cc1ccn2c(c1)nc(=O)c1cc(S(=O)(=O)N3CCC(C)CC3)c(Cl)cc12`, the survival is inactive: 75%.
Consider `O=C(Nc1ccc(Cl)cc1Cl)c1cc(S(=O)(=O)N2CCN(c3ccccc3F)CC2)ccc1F`, for which the survival is inactive: 73%.
For the compound `Cc1ccc(-c2cc3ncc(C(=O)c4cc([N+](=O)[O-])ccc4O)cn3n2)cc1`, the survival is active: 15%.
As for `Cc1ccc(NC(=O)CCSCCc2ccccn2)cc1`, the figure is inactive: 78%; as for `COc1ccc2cc(CN(Cc3nnnn3Cc3ccccc3)C3CCCC3)c(=O)[nH]c2c1`, inactive: 116%.
For the compound `CCc1ccc(-n2c(C)nnc2SCc2nc(-c3ccc(OC)cc3)no2)cc1`, the survival is inactive: 74%.
